From a collection of fitness landscapes (doi:10.1016/j.celrep.2020.107928)
The full ranking holds about 81,000 sequences; the median of “one-hybrid fitness for binding parS DNA” is about -0.17, and the highest 2% start at about 0.51. This is one part of the list.

B1: Caulobacter ParB omega fusion; a variant is named by its letters at X, in order, B8GW30 (parent)
chain: MESVVVGEPGMSEGRRGLGRGLSALLGEVDAAPAQAPGEQLGGSREAPIEILQRNPDQPRRTFREEDLEDLSNSIREKGVLQPILVRPSPDTAGEYQIVAGERAWRAAQRAGLKTVPIMVRELDDLAVLEIGIIENVQRADLNVLEEALSYKVLMEKFERTQENIAQTIGKSXSHVANXMRLLXLPDEVQSYLVSGELTAXHARAIAAAADPVALAKQIIEGGLSVRETEALARKAPNLSAGKSKGGRPPRVKDTDTQALESDLSSVLGLDVSIDHRGSTGTLTITYATLEQLDDLCNRLTRGI

Variants of: B1
Test: one-hybrid fitness for binding parS DNA (scaled: cognate 1, non-cognate 0); higher = stronger binding
Details: with parS DNA site
How it was run: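 Caulobacter ParB libraries with four specificity codons randomised were screened by bacterial one-hybrid selection in the E. coli USO strain, using a HIS3 reporter whose site lies 19 bp from the promoter. Selection ran for 48 hours at 37°C on M9 lacking histidine, with 0.1 mM IPTG and 5 mM 3-AT. Plasmids were Illumina-sequenced before and after selection, three replicate libraries were pooled, and variants with under 10 reads were dropped. Fitness is the log change in each variant's read ratio to wild type, rescaled against the cognate and non-cognate sites.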

| Variant | one-hybrid fitness for binding parS DNA |
| --- | --- |
| QAMC | ≤ 0.2 |
| VLFG | ≤ 0.2 |
| TATK | ≤ 0.2 |
| LPMT | ≤ 0.2 |
| SCGT | ≤ 0.2 |
| MFRW | ≤ 0.2 |
| PEDG | ≤ 0.2 |
| SSFG | ≤ 0.2 |
| QSGP | ≤ 0.2 |
| IRAL | ≤ 0.2 |
| LYPF | ≤ 0.2 |
| GHRH | ≤ 0.2 |
| QNCE | ≤ 0.2 |
| SPGE | ≤ 0.2 |
| PNRF | ≤ 0.2 |
| PVNR | ≤ 0.2 |
| FGVL | ≤ 0.2 |
| GEQS | ≤ 0.2 |
| QLGW | ≤ 0.2 |
| PAQF | ≤ 0.2 |
| DFND | ≤ 0.2 |
| KPTG | ≤ 0.2 |
| MITS | ≤ 0.2 |
| YSVY | ≤ 0.2 |

| Variant | one-hybrid fitness for binding parS DNA |
| --- | --- |
| LPIG | ≤ 0.2 |
| QLPQ | ≤ 0.2 |
| MFWL | ≤ 0.2 |
| ILAT | ≤ 0.2 |
| SLIA | ≤ 0.2 |
| HDCS | ≤ 0.2 |
| DADV | ≤ 0.2 |
| IHRG | ≤ 0.2 |
| KQST | ≤ 0.2 |
| DEWG | ≤ 0.2 |
| TCSW | ≤ 0.2 |
| RCSA | 0.575 |
| ENKR | ≤ 0.2 |
| CHKG | ≤ 0.2 |
| LARE | ≤ 0.2 |
| HRRD | ≤ 0.2 |
| GRPG | ≤ 0.2 |
| HQDT | ≤ 0.2 |
| KKLT | ≤ 0.2 |
| RDDW | ≤ 0.2 |
| MLAS | ≤ 0.2 |
| NYLC | ≤ 0.2 |
| GESC | ≤ 0.2 |
| ARFS | ≤ 0.2 |

| Variant | one-hybrid fitness for binding parS DNA |
| --- | --- |
| HWTS | ≤ 0.2 |
| CHLA | ≤ 0.2 |
| DCLF | ≤ 0.2 |
| NYIC | ≤ 0.2 |
| QARW | ≤ 0.2 |
| QHTK | ≤ 0.2 |
| ARDR | ≤ 0.2 |
| NHSL | ≤ 0.2 |
| MCLS | ≤ 0.2 |
| PKKT | ≤ 0.2 |
| YLLT | ≤ 0.2 |
| GYTA | ≤ 0.2 |
| LKSI | ≤ 0.2 |
| TQIS | ≤ 0.2 |
| GLGA | ≤ 0.2 |
| SHTE | ≤ 0.2 |
| AVAS | ≤ 0.2 |
| LEVG | ≤ 0.2 |
| KNVG | ≤ 0.2 |
| VLKT | ≤ 0.2 |
| TVQC | ≤ 0.2 |
| VLTR | ≤ 0.2 |
| ILTC | ≤ 0.2 |
| GSKW | ≤ 0.2 |

| Variant | one-hybrid fitness for binding parS DNA |
| --- | --- |
| TCTS | ≤ 0.2 |
| DYHC | ≤ 0.2 |
| RGDC | 0.467 |
| APSA | ≤ 0.2 |
| NPFG | ≤ 0.2 |
| QWSH | ≤ 0.2 |
| ILYK | ≤ 0.2 |
| RQMY | 0.474 |
| TPIP | ≤ 0.2 |
| RTNW | 0.287 |
| NSMT | ≤ 0.2 |
| IYSI | ≤ 0.2 |
| TRPK | ≤ 0.2 |
| ARQS | ≤ 0.2 |
| QTYY | ≤ 0.2 |
| KPHL | ≤ 0.2 |
| ASNE | ≤ 0.2 |
| TWRR | ≤ 0.2 |
| QGHY | ≤ 0.2 |
| SHKE | ≤ 0.2 |
| VSCG | ≤ 0.2 |
| EAVS | ≤ 0.2 |
| KHYR | ≤ 0.2 |
| YTLW | ≤ 0.2 |

| Variant | one-hybrid fitness for binding parS DNA |
| --- | --- |
| KLHA | ≤ 0.2 |
| EAKV | ≤ 0.2 |
| GSFV | ≤ 0.2 |
| ISVG | ≤ 0.2 |
| MMAC | 0.206 |
| ADPH | ≤ 0.2 |
| HQES | ≤ 0.2 |
| NQRM | ≤ 0.2 |
| QHSA | ≤ 0.2 |
| ETPL | ≤ 0.2 |
| STYI | ≤ 0.2 |
| RTVQ | ≤ 0.2 |
| PPHL | ≤ 0.2 |
| GYHN | ≤ 0.2 |
| ARHF | ≤ 0.2 |
| RCGE | ≤ 0.2 |
| AFTC | ≤ 0.2 |
| IRSS | ≤ 0.2 |
| QHAW | ≤ 0.2 |
| KQRG | ≤ 0.2 |
| WWAM | ≤ 0.2 |
| QMRQ | ≤ 0.2 |
| QAIT | ≤ 0.2 |
| AWYW | ≤ 0.2 |

| Variant | one-hybrid fitness for binding parS DNA |
| --- | --- |
| FRVG | ≤ 0.2 |
| VNDV | ≤ 0.2 |
| AVSV | ≤ 0.2 |
| KSSR | ≤ 0.2 |
| KNQK | ≤ 0.2 |
| KKYC | ≤ 0.2 |
| CRTA | ≤ 0.2 |
| RLTI | ≤ 0.2 |
| TSIL | ≤ 0.2 |
| VHVV | 0.244 |
| KERD | ≤ 0.2 |
| TYNG | ≤ 0.2 |
| HCLG | ≤ 0.2 |
| HCWS | ≤ 0.2 |
| PYPG | ≤ 0.2 |
| MTFG | ≤ 0.2 |
| AVWS | ≤ 0.2 |
| WRQV | ≤ 0.2 |
| HWTG | ≤ 0.2 |
| PIYE | ≤ 0.2 |
| KAST | ≤ 0.2 |
| CDTS | ≤ 0.2 |
| AKVN | ≤ 0.2 |
| CMLE | ≤ 0.2 |

| Variant | one-hybrid fitness for binding parS DNA |
| --- | --- |
| VPWR | ≤ 0.2 |
| NQSV | ≤ 0.2 |
| HTGS | ≤ 0.2 |
| DTSE | ≤ 0.2 |
| LELN | ≤ 0.2 |
| HYIR | ≤ 0.2 |
| AHEK | ≤ 0.2 |
| NDKD | ≤ 0.2 |
| HSLL | ≤ 0.2 |
| VPRN | ≤ 0.2 |
| ECSN | ≤ 0.2 |
| TAWC | ≤ 0.2 |
| CQKA | ≤ 0.2 |
| IACF | ≤ 0.2 |
| QMTP | ≤ 0.2 |
| GMFL | ≤ 0.2 |
| GFDC | ≤ 0.2 |
| QREM | ≤ 0.2 |
| SSTV | ≤ 0.2 |
| APMC | ≤ 0.2 |
| CLGY | ≤ 0.2 |
| HTHW | ≤ 0.2 |
| DARN | ≤ 0.2 |
| EPYW | ≤ 0.2 |

| Variant | one-hybrid fitness for binding parS DNA |
| --- | --- |
| PNWV | ≤ 0.2 |
| RENS | 0.415 |
| LQMC | ≤ 0.2 |
| CRMS | ≤ 0.2 |
| PCTS | ≤ 0.2 |
| KRGI | ≤ 0.2 |
| RISH | 0.259 |
| GRPR | ≤ 0.2 |
| SEVA | 0.262 |
| PLSF | ≤ 0.2 |
| QSGL | ≤ 0.2 |
| WTQR | ≤ 0.2 |
| YRVC | ≤ 0.2 |
| QTKA | ≤ 0.2 |
| HCMW | ≤ 0.2 |
| KFPD | ≤ 0.2 |
| HGTA | ≤ 0.2 |
| DEPC | ≤ 0.2 |
| TPKI | ≤ 0.2 |
| LLCP | ≤ 0.2 |
| RAYP | ≤ 0.2 |
| PCRA | ≤ 0.2 |
| GIVR | ≤ 0.2 |
| AQVV | ≤ 0.2 |

| Variant | one-hybrid fitness for binding parS DNA |
| --- | --- |
| SGMS | ≤ 0.2 |
| PCRL | ≤ 0.2 |
| MSEH | ≤ 0.2 |
| TTRR | ≤ 0.2 |
| FYFS | ≤ 0.2 |
| PEDM | ≤ 0.2 |
| GCQA | ≤ 0.2 |
| ISVS | ≤ 0.2 |
| GKQR | ≤ 0.2 |
| TFLQ | ≤ 0.2 |
| ATVI | ≤ 0.2 |
| EPVV | ≤ 0.2 |
| RCTA | 0.609 |
| AGRN | ≤ 0.2 |
| QTVL | ≤ 0.2 |
| KRWT | ≤ 0.2 |
| YNAE | ≤ 0.2 |
| FFRS | ≤ 0.2 |
| VYMY | ≤ 0.2 |
| PAAC | ≤ 0.2 |
| RVWN | 0.478 |
| RTCT | 0.917 |
| VVCG | ≤ 0.2 |
| GVSK | ≤ 0.2 |

| Variant | one-hybrid fitness for binding parS DNA |
| --- | --- |
| SLYI | ≤ 0.2 |
| EPHC | ≤ 0.2 |
| AVSD | ≤ 0.2 |
| YVLG | ≤ 0.2 |
| RYRE | ≤ 0.2 |
| QTRP | ≤ 0.2 |
| QGHF | ≤ 0.2 |
| DTYY | ≤ 0.2 |
| RNWE | ≤ 0.2 |
| TSNW | ≤ 0.2 |
| QCDW | ≤ 0.2 |
| PRYQ | ≤ 0.2 |
| YIST | ≤ 0.2 |
| ADYG | ≤ 0.2 |
| YQRH | ≤ 0.2 |
| RVMT | 0.885 |
| LRDW | ≤ 0.2 |
| PVLD | ≤ 0.2 |
| PVRM | ≤ 0.2 |
| YLSR | ≤ 0.2 |
| MMTT | ≤ 0.2 |
| PLTR | ≤ 0.2 |
| WNND | ≤ 0.2 |
| SVVD | ≤ 0.2 |

| Variant | one-hybrid fitness for binding parS DNA |
| --- | --- |
| MQSR | ≤ 0.2 |
| SLTR | ≤ 0.2 |
| QPLQ | ≤ 0.2 |
| KTWQ | ≤ 0.2 |
| PQHV | ≤ 0.2 |
| HQYW | ≤ 0.2 |
| IPQC | ≤ 0.2 |
| AKRV | ≤ 0.2 |
| SLEV | ≤ 0.2 |
| SSKR | ≤ 0.2 |
| LVVS | ≤ 0.2 |
| PHES | ≤ 0.2 |
| VQTT | ≤ 0.2 |
| LPNC | ≤ 0.2 |
| ACRR | ≤ 0.2 |
| FAAL | ≤ 0.2 |
| PMTK | ≤ 0.2 |
| EATD | ≤ 0.2 |
| IEKP | ≤ 0.2 |
| SNDG | ≤ 0.2 |
| RGIV | ≤ 0.2 |
| PLWY | ≤ 0.2 |
| HNPA | ≤ 0.2 |
| LTNS | ≤ 0.2 |

| Variant | one-hybrid fitness for binding parS DNA |
| --- | --- |
| MIHF | ≤ 0.2 |
| RLTC | 1 |
| QSTS | ≤ 0.2 |
| DTQP | ≤ 0.2 |
| YDRH | ≤ 0.2 |
| NGPP | ≤ 0.2 |
| AWRA | ≤ 0.2 |
| EAGV | ≤ 0.2 |
| RDLR | ≤ 0.2 |
| RIRI | ≤ 0.2 |
| AYFF | ≤ 0.2 |
| PKSN | ≤ 0.2 |
| WYRS | ≤ 0.2 |
| TKCC | ≤ 0.2 |
| QPFW | ≤ 0.2 |
| PVTI | ≤ 0.2 |
| DERR | ≤ 0.2 |
| HYPE | ≤ 0.2 |
| GVYA | ≤ 0.2 |
| CMQL | ≤ 0.2 |
| RHDR | ≤ 0.2 |
| LLFP | ≤ 0.2 |
| NTSV | ≤ 0.2 |
| DSSI | ≤ 0.2 |

| Variant | one-hybrid fitness for binding parS DNA |
| --- | --- |
| PADF | ≤ 0.2 |
| GRKH | ≤ 0.2 |
| GAEI | ≤ 0.2 |
| REKE | ≤ 0.2 |
| MNMD | ≤ 0.2 |
| QILM | ≤ 0.2 |
| AEPC | ≤ 0.2 |
| QYHQ | ≤ 0.2 |
| AMGK | ≤ 0.2 |
| RQPH | ≤ 0.2 |
| KATD | ≤ 0.2 |
| YHVS | ≤ 0.2 |
| PANA | ≤ 0.2 |
| KISI | ≤ 0.2 |
| FRDS | ≤ 0.2 |
| RQIA | 0.42 |
| KVTC | ≤ 0.2 |
| IMFR | ≤ 0.2 |
